The record followed here is the supplement of paper PMC10126150.

Values marked as one replicate rest on one cluster of the flow cell; about a third of the high ones do not repeat.

In the data set the test system is ATP. Kind of data set: switch fluorescence ratio, 500 uM ATP over buffer (Cy3 cluster intensity, sum of 5 cycles each) (fold (ratio)); higher = stronger signal-on switching upon ATP binding; sequences stand for … in TCGTCGGCAGCGTCAGATGTGTATAAGAGACAGTTTTTTTTTTTTTTTTTTTTTTTTT…TC. Conditions: aptamer strand: ATP DNA aptamer (quencher-CACCTGGGGGAGTATTGCGGAGGAAGG + anchor), 100 nM annealed; ATP concentration: 500 uM; one replicate. In short, it runs like this: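 Clusters carrying Cy3-labelled switching strands on a modified Illumina MiSeq flow-cell were annealed to 100 nM quencher-labelled ATP aptamer and imaged in selection buffer. They were imaged again after 15 min with 500 uM ATP at 22 °C, over five buffer/ATP cycles with NaOH stripping and re-annealing in between. For each cluster, the fluorescence ratio is the summed Cy3 intensity of the target cycles divided by that of the buffer cycles, averaged per switch-domain sequence. Clusters outside 100-1000 RFU were left out.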
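Also: ATP exposure 15 min at 22 °C before imaging.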

For the sequence TGGGCCAGTA, the switch fluorescence ratio is 0.928.
Take GGTGGACTCC: the switch fluorescence ratio amounted to 1.01.
On to CCGTTACTAG, for which the switch fluorescence ratio was 1.26.
Regarding TTTCGATGAT, the switch fluorescence ratio is 1.1.
The same measure for AAAAGATCGG: 1.02.
As for CAATTCTTGT, the switch fluorescence ratio was 1.01.
GACTCTGAGC: the switch fluorescence ratio came to 1.03.
As to CTCGTAGACC, the switch fluorescence ratio was determined as 0.994.
With AAATTCTATT, the switch fluorescence ratio was found to be 0.968.
As to AAGATCGCTT, the switch fluorescence ratio turned out to be 1.04.
GGGAAAAGAG: the switch fluorescence ratio came to 0.97.
The same measure for GGGATGGGA: 0.954; for TAGTCAAGGA: 0.972; for GCCACCATCG: 0.989.
With ACCTCGGATG, the switch fluorescence ratio is 0.994.
As for ACGGGAACAG, the switch fluorescence ratio came out at 1.05.
As to GCACAAATTA, the switch fluorescence ratio amounted to 1.02.
For GGCGCACGGT, the switch fluorescence ratio was found to be 0.967.
As to AGCGTATAAG, the switch fluorescence ratio was 0.973.
For the sequence TACGTGGACG, the switch fluorescence ratio stood at 1.03.
Consider GGGAAGAAGA, for which the switch fluorescence ratio worked out at 1.02.
Take GGAGGACAC: the switch fluorescence ratio is 1.02.
The same measure for GGCAGGGTGG: 0.996.
As for ATAAGGCCGC, the figure is 1; as for CATGTCTAAG, 0.997.
ACGGTAGAGA: the switch fluorescence ratio is 1.05.
With TCTAGGTCCT, the switch fluorescence ratio is 1.04.
On to TGGTGATTCA, for which the switch fluorescence ratio was 1.01.
For the sequence TAGATCACTG, the switch fluorescence ratio stood at 1.01.
In the case of GGTGTGGACA, the switch fluorescence ratio worked out at 0.996.
Consider AGCTTAGTGT, for which the switch fluorescence ratio was determined as 0.998.
In the case of TAACAGGCAG, the switch fluorescence ratio is 0.993.
As for GGAATTGCAT, the switch fluorescence ratio is 0.972.
With CTTATAGTAC, the switch fluorescence ratio came out at 1.07.
For AACCGTGGCT, the switch fluorescence ratio is 1.04.
With TTCTTACCAT, the switch fluorescence ratio stood at 0.989.
Turning to ATTGGTTTCC, the switch fluorescence ratio is 1.07.
For the sequence TTTTGGTGCC, the switch fluorescence ratio came to 1.1.
On to CGGCACATTG, for which the switch fluorescence ratio came to 0.995.
In the case of ACGTGCGTA, the switch fluorescence ratio was found to be 0.975.
The same measure for TTCGCGACAT: 1.04; for CCTGGTAAGA: 0.987; for CAACAGTTTA: 1.01.
Consider GGGCAGGGG, for which the switch fluorescence ratio was 1.04.
Turning to CGACTATACT, the switch fluorescence ratio was 2.54.
Consider CTAGTACATA, for which the switch fluorescence ratio stood at 1.02.
For AGCAATTCC, the switch fluorescence ratio stood at 3.43.
As for AGACTGGCGT, the figure is 1.02; as for GCTGAAGTGG, 0.999; as for TCTCTCGCGG, 1.29.
The same measure for TGCTTGTGGC: 1.01; for GTTGACCGTA: 1.17.
Regarding GCCTGGGCTC, the switch fluorescence ratio worked out at 0.981.
Turning to ACTGAGTTT, the switch fluorescence ratio came out at 0.994.
For the sequence TCGGTTGCGG, the switch fluorescence ratio was 0.965.
As to GTTATTTCT, the switch fluorescence ratio came out at 0.99.
As for TGAAAGTGGG, the figure is 0.963.
With TGTACGCTAA, the switch fluorescence ratio stood at 4.25.
Consider CATGCGGGTT, for which the switch fluorescence ratio was found to be 1.04.
Regarding ACCCGGCGGA, the switch fluorescence ratio came out at 1.05.
On to GGCACCAAGT, for which the switch fluorescence ratio stood at 1.06.
Take CGAGTTGCAC: the switch fluorescence ratio was determined as 0.962.
On to GCGTAACAGG, for which the switch fluorescence ratio came to 1.08.
As for GCAACAACGA, the figure is 1.17; as for ATTCTGACTG, 1; as for ATCAGCGCAT, 1.11.
The same measure for GAAACCTAGG: 1.05.
